# ± gives the standard deviation of the averaged measurements. The list shows a part of the results.
# Tested on: PfAP2-LT AP2 domain (GST-tagged)
# Assay: gcPBM binding intensity (ln(normalized median fluorescence intensity)); higher = stronger DNA binding
# Outline: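 Using an Agilent 4 × 180k array, primer-extended double-stranded 36-bp intergenic genomic probes and negative controls were exposed for 1 h to GST-fused P. falciparum DNA-binding domains expressed in E. coli. Binding was carried out in 1× PBS with 1% milk, 0.2 mg/ml BSA, 0.5% salmon testes DNA and 0.03% Triton X-100, and protein was detected with Alexa488 anti-GST antibody and a 488 nm scan. Binding intensity is the highest Masliner-normalised natural-log median intensity across replicate spots of either probe orientation.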
row,Sequence,gcPBM binding intensity (ln)
1,TTCGTTATATTTTGATGTACTGATTCATATATATAT [XGTACX_site1835],9.09 ± 0.42
2,ATTGATTTTTAATATACACACATAAGGACCACAAAA [CACACA_site4344],8.97 ± 0.35
3,AGAGAATATTTCCACACATGCAAATGTTATATGTAA [TGCATGCA_site282],8.77 ± 0.42
4,TATACATATGTATGCACACATACATACACATAGAAT [CACACA_site3480],9.21 ± 0.31
5,TATATTATTTAAAAAGTGCAGTTACAAGATGAACCT [GTGCAC_site9641],8.46 ± 0.33
6,TAATATTTATTCTATTGTACATAAAATATATATATA [XGTACX_site7132],8.39 ± 0.33
7,GGAAAGACATTACACAGTACCCAGGAAATCTACGGA [XGTACX_site2002],8.91 ± 0.4
8,ATTATATATGTATAAATATGCTATATATATATATAT [GTGCAC_negctrl_site430],9.4 ± 0.29
9,TCAACATTTAAAAATAGTACTCATAAACCTTTCGAA [XGTACX_site4111],8.46 ± 0.44
10,ATAAATAAAAAACACACACACACACCCAAAAAAAAA [CACACA_site2624],9.88 ± 0.3
11,TATCTCTCTTTCTGCTGTACATAAAAATTATATAAT [XGTACX_site5961],8.6 ± 0.39
12,AACATATTTTTAAATACACACACATAAAAAAAAAAA [CACACA_site8279],9.14 ± 0.33
13,CTCAACATATACGTAACACACATATATATATATATA [CACACA_site3838],9.93 ± 0.23
14,TCTACAAGGCTTGATCGTACAATTTGAATGTATTTG [XGTACX_site7698],8.8 ± 0.46
15,AGCATAAACAATTTTTGAAAAAATATACACTCATAG [CACACA_negctrl_site890],8.64 ± 0.43
16,TATATATATATATACACACACACAAAAAAAAAAAAA [CACACA_site1505],9.61 ± 0.38
17,AAAATAACGAGTCAAACACACATATATATATATATA [CACACA_site2039],10.1 ± 0.2
18,AGATTATATATATGTATATATGTATATATTTATATA [CACACA_negctrl_site1797],8.51 ± 0.44
19,TATGCAAGGAACCACACACACACACCCAAATGTATA [CACACA_site750],10.1 ± 0.2
20,AATTAAAAATTCAAGTGTACTTTTATATTATTATAC [XGTACX_site4106],8.88 ± 0.28
21,ATTATAATAGTTAAATGTACACACTAACTACATGGA [XGTACX_site6918],8.89 ± 0.38
22,ATTCGGATATATATCACACATAACTTTAATAATATA [CACACA_site5720],8.65 ± 0.47

row,Sequence,gcPBM binding intensity (ln)
1,TAAATAGCCAAACGCACACCCACAAAAAAAAAAAAA [CACACA_site1554],9.01 ± 0.4
2,TCATATTTGCCTTTTTATTTAGAACACAAAAAAAAA [CACACA_negctrl_site1152],7.97 ± 0.4
3,TATATATAATATACATGTACAAATGTATTTAAAAAT [XGTACX_site6090],8.84 ± 0.33
4,CAAAAAAAGAAAGCTACACACATTTATGTGCTATAT [CACACA_site2777],9.02 ± 0.54
5,TTTCCATTTTCTCTATGTACATAAAAATGAGATAAA [XGTACX_site5689],8.29 ± 0.39
6,CACACGCACGGACACACACACAAAAAAAAAAAGAAA [CACACA_site6378],9.34 ± 0.58
7,AAGACCATATGAATAATGCACACGTTTTAAAATATT [CACACA_site2323],9.12 ± 0.4
8,ATATTTATGGAATATACACACATGTATAATTACATA [CACACA_site7045],8.83 ± 0.4
9,TCTTTGTACTTTCACATGTACACCCAAATGGAAATT [CACACA_negctrl_site1442],8.76 ± 0.41
10,AAATAAATCTTATGCACACAAATAATTAATGAAACA [CACACA_site5011],8.96 ± 0.49
11,AGGACTAATATTTGAACACACATATAATAAATACAT [CACACA_site6068],9.09 ± 0.47
12,GTTTGGTGGTGTTTTGGTACGTACGGGGGTGTATGT [XGTACX_site1211],9.88 ± 0.16
13,TGGAAAATAAAGTACGCACACAAAAATTCTCTTCAT [CACACA_site2327],9.14 ± 0.4
14,AATATATTTTAGAGTTTTATATATTTTATGCATATA [GTGCAC_negctrl_site710],8.66 ± 0.49
15,TTCAAACATATTAATTGTACATACAACAAAACCATG [XGTACX_site5149],8.72 ± 0.44
16,ATATTATTTTATGCTACACACATTTTCTCTTATAAA [CACACA_site943],9.02 ± 0.44
17,GGAATTTTTATTCGAAGTACTGTTGTGAGTAATAAA [XGTACX_site8599],8.51 ± 0.44
18,TAAATGTTAAAATTCACACAAATATGTGCGGAATAT [CACACA_site5055],8.77 ± 0.38
19,TTTGACTAAATTAAATATTAAAGTATGGATTATTCT [CACACA_negctrl_site833],8.28 ± 0.45
20,ATATATAATATATACACACACATGTATATATAAATA [CACACA_site1968],9.26 ± 0.34
21,TGCAAGGAACAACACACACACACATAAATGTATATA [CACACA_site8149],10.2 ± 0.36
22,ACCCATTTGATAATAATGCACACCACATATATTTAT [CACACA_site3061],9.24 ± 0.4

row,Sequence,gcPBM binding intensity (ln)
1,AAAAAAAAAAAACACACACACACATTCAATATAAAA [CACACA_site40],9.76 ± 0.28
2,ATATGTATTTATGTATTTATGTATTTTTATATTTTT [CACACA_negctrl_site595],8.93 ± 0.5
3,TTTTTTATTTTTTGTTATATTTATAATAATTTATGA [XGTACX_negctrl_site260],8.31 ± 0.54
4,TACTTTACACATATTTTTAATTATTCTGAATTCAAA [GTGCAC_negctrl_site253],8.44 ± 0.44
5,ATATATATATATGTAGTGCATTTTATATATAATATT,9.05 ± 0.13
6,TAAAAGTTCACCTGTACACACATATATATATGTACA [CACACA_site1707],9.07 ± 0.31
7,AAGAAATAAATACATACACACATATATATATATATA [CACACA_site3362],9.97 ± 0.2
8,ATAAGTAATATAATATGTACATATATATATATATAT [XGTACX_site3818],9.67 ± 0.23
9,TATATATTGTTATAATGTACATAATATTTTATCTGC [XGTACX_site4983],8.79 ± 0.44
10,GGAAATTTCAATATTTGTACATATATATATATATAT [XGTACX_site3222],9.28 ± 0.45
11,AGAATAATTTTATCGGTACACACTGTATGCATAATA [CACACA_site374],8.97 ± 0.32
12,ATGCAAAATAAAGAAGCACACAAAAATGAAATATAT [CACACA_site9217],9.26 ± 0.4
13,TACAGATATTTTATTTCACACATTTTATCATTTTCT [CACACA_site5701],8.97 ± 0.37
14,TTCAAAAAAGGAAAGTTGCACTTGATACGCTTATTA [GTGCAC_site9411],8.46 ± 0.37
15,TTCTATATTTCTTTTTGTACATATAAATTCAAATAA [XGTACX_site2476],8.52 ± 0.52
16,TATATACGCATTTTTATACACACTTGTTTTATAAAA [CACACA_site727],8.79 ± 0.35
17,ATATAAAATAATACATGTACATATTATATATATATA [XGTACX_site1082],9.02 ± 0.12
18,ATTTTTTTTTCTTAATGTACATACCAAAAAGAAAGA [XGTACX_site5471],8.3 ± 0.35
19,TATAATATATTTTAATGTACGTACATCCCGATTAAT [XGTACX_site7651],8.76 ± 0.43
20,TTTGTCTGCATACGCACACACGTGTACCATCTTATG [CACACA_site4784],9.78 ± 0.41
21,GATAAAATATGTTGCCGTACATATTCATATACTTAA [XGTACX_site4776],8.79 ± 0.4
22,TATTAATATATATGTTGTACAAGTTTTTTTTTTTTT [XGTACX_site5865],8.59 ± 0.5

row,Sequence,gcPBM binding intensity (ln)
1,TTCTTTATTTTTTCTACACACATTATATATTCAAAG [CACACA_site5866],8.98 ± 0.44
2,AAATATTAAATGACAAAAAAAAAAAAAAAAGGGGTT [CACACA_negctrl_site951],8.86 ± 0.47
3,TATTTTGAAAATAAAAGTACAAATTTTATATTTAAA [XGTACX_site3238],8.14 ± 0.41
4,TATTTATATTCATAATGTACATTCAATTATTGTTTT [XGTACX_site4191],9.11 ± 0.61
5,AATATAATATAATGCACACATAAACAAAAAAAAAAA [CACACA_site783],9.06 ± 0.4
6,AACAAAGAAAATACATGTACAAAAAATATTAACGAA [XGTACX_site287],9.15 ± 0.5
7,TGGTATTTTGATGATAAAAGGAAATTTTTTTTATAC [XGTACX_negctrl_site111],8.23 ± 0.45
8,GTTAGCATATTAAGTTGTACACAATTATTCTTCAAT [XGTACX_site8324],8.8 ± 0.38
9,TTTAATACGAATGAGGCACACACCTAGTATACATGC [CACACA_site621],9.11 ± 0.36
10,TTTAATTTTTTTAAAACACACAAATATATATATATA [CACACA_site3898],8.63 ± 0.33
11,CAAAATAATATATATACACACACACCGATATATATA [CACACA_site8082],9.81 ± 0.18
12,GTAATTAAAATATATACACACAAAGGCTATTAAATA [CACACA_site1011],8.94 ± 0.44
13,ATTTATGAAAGAAATAGTACACACATAAACATTTGT [XGTACX_site5862],9.03 ± 0.36
14,TATATAAAATATTAATGTACATATAAATATATATAT [XGTACX_site6656],8.66 ± 0.4
15,AATTATATATTAAAAAGTACAAGTTAATATAATATA [XGTACX_site2737],8.57 ± 0.47
16,ATATAAAAAAATTGCACACATAAATATATACATATA [CACACA_site1218],8.96 ± 0.39
17,GATACATAGAAACACACACACATACATATATACATA [CACACA_site3438],9.92 ± 0.26
18,TTTATGTACAGACATATACACACCTCTATAATATAT [CACACA_site730],8.99 ± 0.4
19,TCACAAAAAGAACATTGATATTATTATAAAATCGTC [GTGCAC_negctrl_site177],8.65 ± 0.43
20,TTACAAAAATTTTGTTCACACATAAAAATATGTTAC [CACACA_site5740],8.59 ± 0.39
21,TAATAAATTATTTTTTATTATTTTAATAACACTTCA [CACACA_negctrl_site3],8.4 ± 0.49
22,ATATATTTTTCAAAATGTACAAATAATTAAATACCA [XGTACX_site875],8.52 ± 0.33
